The record followed here is PMC4336329 (PLoS ONE, 2015).

The campaign covered roughly 310,000 compounds. About 2,200 (0.71%) showed an effect of 50% or more. Effects have a minus sign here. This is one part of the list.

For this test, the target named is human ether-à-go-go-related gene (hERG) potassium channel (human, UniProt Q12809). Kind of test: primary screen, population patch clamp on CHO cells stably expressing hERG.
Sequence of human ether-à-go-go-related gene (hERG) potassium channel (Q12809 whole entry, looked up): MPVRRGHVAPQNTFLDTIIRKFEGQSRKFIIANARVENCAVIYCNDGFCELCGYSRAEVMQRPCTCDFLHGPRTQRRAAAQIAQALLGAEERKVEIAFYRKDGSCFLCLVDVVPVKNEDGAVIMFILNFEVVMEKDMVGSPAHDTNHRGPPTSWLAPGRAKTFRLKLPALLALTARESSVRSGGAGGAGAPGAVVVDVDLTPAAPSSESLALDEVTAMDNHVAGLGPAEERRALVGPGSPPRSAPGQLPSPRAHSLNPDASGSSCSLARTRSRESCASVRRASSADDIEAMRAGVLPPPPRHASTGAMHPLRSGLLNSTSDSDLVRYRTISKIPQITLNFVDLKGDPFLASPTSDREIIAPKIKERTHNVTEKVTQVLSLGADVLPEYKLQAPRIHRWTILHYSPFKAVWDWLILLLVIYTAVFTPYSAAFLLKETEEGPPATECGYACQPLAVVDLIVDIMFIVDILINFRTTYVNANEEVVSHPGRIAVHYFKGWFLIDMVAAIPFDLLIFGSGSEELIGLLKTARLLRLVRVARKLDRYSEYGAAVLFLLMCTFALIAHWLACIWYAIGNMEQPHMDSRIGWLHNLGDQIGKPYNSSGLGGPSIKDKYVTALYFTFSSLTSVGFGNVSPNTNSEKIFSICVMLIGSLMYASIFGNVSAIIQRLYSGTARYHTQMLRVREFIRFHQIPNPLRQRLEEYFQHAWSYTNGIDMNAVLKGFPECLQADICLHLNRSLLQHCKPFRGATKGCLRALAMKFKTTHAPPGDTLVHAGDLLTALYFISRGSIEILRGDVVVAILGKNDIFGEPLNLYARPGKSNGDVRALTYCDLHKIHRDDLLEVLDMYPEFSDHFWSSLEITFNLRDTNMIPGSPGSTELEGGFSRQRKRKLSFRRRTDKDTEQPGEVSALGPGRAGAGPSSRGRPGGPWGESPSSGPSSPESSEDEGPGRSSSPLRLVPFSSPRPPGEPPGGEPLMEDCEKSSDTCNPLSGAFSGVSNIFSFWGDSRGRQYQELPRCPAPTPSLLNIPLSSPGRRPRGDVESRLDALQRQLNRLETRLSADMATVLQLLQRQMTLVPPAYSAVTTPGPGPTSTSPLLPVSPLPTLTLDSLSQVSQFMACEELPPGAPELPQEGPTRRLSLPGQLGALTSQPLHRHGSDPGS
With `CN1CCN(C(=O)CCNC(=O)Cn2cnc3ccccc3c2=O)CC1`, the “hERG current change (%, negative = inhibition) at 1uM” value is given as 14.8%. For the compound `CC(C)c1nnc(NC(=O)CSc2ncn[nH]2)s1`, the “hERG current change (%, negative = inhibition) at 1uM” value is on record as 9.79%. With `Cc1ccc(C)c(NC(=O)CCNC(=O)N2C[C@H]3C[C@@H](C2)c2cccc(=O)n2C3)c1` the figure was 8.68%; with `CCc1cccc(C)c1NC(=O)CSc1nnc(-c2cc3cc(Br)ccc3o2)n1CC`, 15.4%; with `CN(C)c1cccc(C(=O)OC(C(=O)Nc2ccc(Cl)cc2C(F)(F)F)c2ccccc2)c1` (stereo not drawn), 0.322%. With `Cl.Fc1c(F)c(F)c(N2CCNCC2)c(F)c1F` the figure was 16.7%; with `CCc1ccccc1NC(=O)Cn1cccc1C1=NC(c2ccccc2)CO1` (stereo not drawn), 3.85%. The figure for `O=C(NCc1ccc(Cl)cc1)c1cc(=O)[nH]c2ccc(S(=O)(=O)N3CCOCC3)cc12` is 12.7%.

Consider `NC(Cc1ccc(OC(F)F)cc1)C(=O)O` (stereo not drawn), for which the “hERG current change (%, negative = inhibition) at 1uM” value came out at 10.9%. The figure for `Cc1cccc(NS(=O)(=O)c2cc(C(=O)N3CCOCC3)ccc2Cl)c1` is 8.2%. The figure for `CCOc1ccc(NC(=O)CCNS(=O)(=O)c2cccc3nonc23)cc1` is 1.12%. With `CC1CCCC(NC(=O)COC(=O)c2ccc(S(=O)(=O)N3CCOCC3)cc2)C1C` (stereo not drawn) the figure was 12.1%. Consider `NC(=O)C1CCN(c2c([N+](=O)[O-])cc(C(F)(F)F)cc2[N+](=O)[O-])CC1`, for which the “hERG current change (%, negative = inhibition) at 1uM” value is on record as 2.89%. Regarding `Cn1c(/C=N/NC(=O)c2ccccc2)nc2ccccc21`, the “hERG current change (%, negative = inhibition) at 1uM” value was 7.06%.

Consider `Cc1ccc(CN2[C@@H](Cc3ccccc3)C(=O)CS2(=O)=O)cc1`, for which the “hERG current change (%, negative = inhibition) at 1uM” value is given as 4.2%. The figure for `O=C(COc1ccc2ccccc2c1Br)Nn1cnnc1` is -8.48%; for `Nc1nonc1C(=O)N/N=C/c1cc2c(cc1[N+](=O)[O-])OCO2` it is 13.8%. With `CC(C)Oc1cccc(C(=O)C2CCCN(C(=O)c3cc(C4CC4)[nH]n3)C2)c1` (stereo not drawn) the figure was 6.4%; with `CCn1cc(SCC(=O)Nc2cc(C)on2)c2ccccc21`, 9.96%. The figure for `O=C(Nc1cc2c3c(c1)C1CCCC1CN3CC1CCCC21)c1ccccc1` (stereo not drawn) is 9.32%; for `CCCn1c(CN2CCN(c3cccc(Cl)c3)CC2)nc2c1c(=O)n(C)c(=O)n2C` it is -3.54%; for `O=C(CC1Nc2ccccc2NC1=O)NC1CCCCC1` (stereo not drawn) it is 4.71%.

With `O=C(Nc1cccc(C(=O)Nc2ccc(F)cc2F)c1)c1ccccc1`, the “hERG current change (%, negative = inhibition) at 1uM” value came out at 9.47%. With `Cc1cc(C)c(OCC(=O)OCC(=O)NC2CCC(C)CC2)c(C)c1` (stereo not drawn) the figure was 14.7%. The figure for `Cc1cccc(C)c1NC(=O)CN(C)C(=O)c1cc([N+](=O)[O-])ccc1N1CCOCC1` is 26%. The figure for `Cc1ccc(NC(=O)NNC(=O)COc2ccc(Cl)cc2)cc1` is 13%; for `O=C(NCc1ccccn1)c1ccc(CNS(=O)(=O)c2cccc(Cl)c2)cc1` it is 3.96%. Consider `Cc1ccc(S(=O)(=O)NCc2ccccc2)cc1C(=O)NCCc1ccc(S(N)(=O)=O)cc1`, for which the “hERG current change (%, negative = inhibition) at 1uM” value stood at 1.48%.

As for `NS(=O)(=O)c1cccc(NS(=O)(=O)c2cccc(C(F)(F)F)c2)c1`, the “hERG current change (%, negative = inhibition) at 1uM” value is recorded as 13.1%. The figure for `CC(=O)OCC1OC(OC(C)=O)C(NC(=O)c2cccnc2)C(OC(C)=O)C1OC(C)=O` (stereo not drawn) is 3.31%; for `CCCNC(=O)Cc1ncn[nH]1` it is 5.94%; for `COc1ccc(S(=O)(=O)Nc2ccc(S(=O)(=O)N3CCOCC3)cc2)cc1C` it is 10.6%.

Take `CCCC(C(=O)NCC1CCCO1)N(Cc1ccccc1)C(=O)CNS(=O)(=O)c1ccccc1` (stereo not drawn): the “hERG current change (%, negative = inhibition) at 1uM” value was -0.543%. With `COc1ccc(NC(=O)CCSc2ccc(F)cc2)cc1` the figure was 10.7%; with `O=C(OC1CCCCC1=O)c1cc(Cl)ccc1[N+](=O)[O-]` (stereo not drawn), 10.1%; with `O=S(=O)(c1cc(Cl)ccc1Cl)N1CCN2CCCC2C1` (stereo not drawn), 13%.

As for `O=C(CSc1nnc2scc(-c3ccccc3)n12)NCc1ccco1`, the “hERG current change (%, negative = inhibition) at 1uM” value is 3.93%. The figure for `CC(C)CN(C(=O)CN1CCN(c2ccccc2O)CC1)c1c(N)n(CC(C)C)c(=O)[nH]c1=O` is 18.5%; for `O=C(CCS(=O)(=O)c1ccc(Cl)cc1)Nc1nc(-c2ccncc2)cs1` it is -4.83%; for `COc1ccc(OC)c(NC(=O)c2cc(-c3ccc(C)cc3O)n[nH]2)c1` it is -0.884%.

With `CC(C)C(=O)Nc1cccc(C(=O)Nc2cc([N+](=O)[O-])ccc2Cl)c1`, the “hERG current change (%, negative = inhibition) at 1uM” value is recorded as 11.8%. With `CCC1CCCCN1CCCCOc1cccc(Cl)c1.O=C(O)C(=O)O` (stereo not drawn) the figure was -55.6%; with `O=C(CCC1CCCC1)Nc1ccc([N+](=O)[O-])cn1`, 0.811%; with `CCOc1ccccc1NC(=O)CN(c1ccc(Cl)cc1)S(C)(=O)=O`, 7.55%.

In the case of `CCOC(=O)Cc1csc(/N=C/c2c(O)n(-c3ccccc3C(F)(F)F)c(=O)c3ccccc23)n1`, the “hERG current change (%, negative = inhibition) at 1uM” value is listed as -3.74%.

As for `O=C(NCc1ccc(Cl)cc1)c1cc(=O)[nH]c2ccccc12`, the “hERG current change (%, negative = inhibition) at 1uM” value came out at 11.5%. The figure for `CS(=O)(=O)c1ccc(Cl)c(NC(=O)COC(=O)c2cccc(C#N)c2)c1` is 5.94%. With `Cn1c(NC(=O)c2cc(Cl)ccc2Cl)cc(=O)n(C)c1=O` the figure was -6.29%. With `O=C(CCNC(=O)N1CC(=O)Nc2ccccc21)Nc1ccc(F)c(Cl)c1`, the “hERG current change (%, negative = inhibition) at 1uM” value was 10.5%. As for `CN(C)CCCNc1c2c(nc3ccccc13)CCC2.Cl`, the “hERG current change (%, negative = inhibition) at 1uM” value was 7.24%. With `O=C1C(c2ccccc2)NC(=S)N1C1CCCCC1` (stereo not drawn), the “hERG current change (%, negative = inhibition) at 1uM” value came to 7.14%. As for `COc1ccc(C(=O)/C=C/Nc2ccccn2)cc1`, the “hERG current change (%, negative = inhibition) at 1uM” value stood at 12.4%.

For the compound `CCOc1ccccc1N1CC(C(=O)Nc2nccs2)CC1=O` (stereo not drawn), the “hERG current change (%, negative = inhibition) at 1uM” value amounted to 7.48%.

As for `Cc1cc(C)cc(N(CCC#N)C(=O)CN2C(=O)NC3(CCCC3)C2=O)c1`, the “hERG current change (%, negative = inhibition) at 1uM” value is 10.1%.

As to `CCCCN(CC)CCCNC(=O)c1ccc(CS(=O)(=O)c2ccccc2C)o1`, the “hERG current change (%, negative = inhibition) at 1uM” value is 2.5%.

Consider `Cc1cc(C)c2[nH]c(=O)c(CN(Cc3cccs3)C(=S)NCc3ccco3)cc2c1`, for which the “hERG current change (%, negative = inhibition) at 1uM” value stood at 0.338%. The figure for `CC(=O)c1cccc(-n2nnnc2SCC(=O)Nc2cc(C)on2)c1` is 12.1%; for `CCCCn1c(=O)c2c(c3ccccc31)OCC(=O)N2` it is 7.19%.

With `Cc1cccc(-c2cc3c(nn2)-c2ccccc2C3=O)c1`, the “hERG current change (%, negative = inhibition) at 1uM” value came to 4.87%.

Take `CCOC(=O)C1(Cc2cccc(OC)c2)CCCN(C(=O)c2ccc(OC)o2)C1` (stereo not drawn): the “hERG current change (%, negative = inhibition) at 1uM” value is reported as -8.25%. Regarding `O=C(CCSc1ccc(F)cc1)NNC(=O)c1ccc([N+](=O)[O-])cc1`, the “hERG current change (%, negative = inhibition) at 1uM” value was -21.4%. With `O=C(/C=C/c1cccs1)c1ccc([N+](=O)[O-])cc1` the figure was 13.9%. Take `O=C(O)C/C(=C\c1ccc(N2CCOCC2)c([N+](=O)[O-])c1)c1nc2ccccc2s1`: the “hERG current change (%, negative = inhibition) at 1uM” value is reported as 5.65%. With `CC(C)(C)C1CCC(OCC(O)CN2CCN(c3ccccc3)CC2)CC1.Cl` (stereo not drawn) the figure was 11.4%; with `CN=C(NC#N)NCCSCc1nc[nH]c1C`, 13%; with `O=C(CCCC(=O)c1ccc(F)cc1)c1ccc(F)cc1`, 5.62%.

In the case of `CC1CCCN(C(=S)Nc2ccc3nc4n(c(=O)c3c2)CCCCC4)C1` (stereo not drawn), the “hERG current change (%, negative = inhibition) at 1uM” value is on record as -43%. With `CCOC(=O)C1CCCN(C(=O)CCNS(=O)(=O)c2cc(Br)cnc2N)C1` (stereo not drawn) the figure was 10.8%. For the compound `CCOCCCNC(=O)C1CCN(S(=O)(=O)N2CCCCC2)CC1`, the “hERG current change (%, negative = inhibition) at 1uM” value amounted to 10.3%. The figure for `COc1cc(/C=N/NC(=O)C2COc3ccccc3O2)cc(OC)c1OC` (stereo not drawn) is 12.3%.

For the compound `CCOC(=O)c1cc(-c2ccccc2)n(CCC(=O)N2CCN(c3ccccc3OC)CC2)c1C`, the “hERG current change (%, negative = inhibition) at 1uM” value is 11.5%. With `C#CCOCCOCCOCCNc1nc(N2CCN(C(=O)[C@H](CCC(=O)O)n3cc(C(N)CC(C)C)nn3)CC2)nc(N2CCN(C(=O)[C@H](CCC(=O)O)n3cc(C(N)[C@H](C)CC)nn3)CC2)n1.Cl` (stereo partly drawn) the figure was 11.4%. On to `COc1ccc(C(C(=O)NC2CCCC2)N(C(=O)c2ccco2)c2cccc(C(C)=O)c2)cc1OC` (stereo not drawn), for which the “hERG current change (%, negative = inhibition) at 1uM” value is 12.4%. Consider `CC(C)CNC(=O)C(=O)NNC(=O)C1CCCCC1`, for which the “hERG current change (%, negative = inhibition) at 1uM” value was found to be 3.29%.

As for `Cc1ccc(N2C(=O)CN(Cc3sccc3C)C2=S)cc1C`, the “hERG current change (%, negative = inhibition) at 1uM” value worked out at 4.95%. With `CCc1ccc(CN2CCC(N3CCC(C(=O)N4CCCC4)CC3)CC2)o1` the figure was -28.3%; with `COC(=O)c1cccc(NC(=O)c2ccccc2)c1`, 3.59%.

Consider `O=C(CCn1cccn1)N1CCCC(N2CCN(c3cccc(Cl)c3)CC2)C1` (stereo not drawn), for which the “hERG current change (%, negative = inhibition) at 1uM” value is -11.8%.

`O=C(CSc1nc2c([nH]c3ccccc32)c(=O)n1-c1ccccc1)N1CCOCC1`: the “hERG current change (%, negative = inhibition) at 1uM” value came out at 5.12%. The figure for `CCc1ccc(C2=NN(S(C)(=O)=O)C(c3cccs3)C2)cc1` (stereo not drawn) is 3.41%.

For the compound `O=C(CCn1ccc2ccccc21)NC1CCCc2ccccc21` (stereo not drawn), the “hERG current change (%, negative = inhibition) at 1uM” value is recorded as -1.75%.

Take `O=C(O)CCC(=O)NCc1ccc(F)cc1`: the “hERG current change (%, negative = inhibition) at 1uM” value came to 0.0865%. The figure for `Cc1ccc(-c2csc3ncnc(NCCC(=O)O)c23)cc1.Cl` is 10.1%; for `CC(=O)c1cc2c(s1)-c1cc(F)ccc1OC2` it is 2.28%.

As to `O=C(Nc1ccccc1)OCCN1CCN(Cc2ccccc2)CCC1=O`, the “hERG current change (%, negative = inhibition) at 1uM” value is given as -1.66%.

With `COc1cc(C(=S)N2CCOCC2)ccc1OC(=O)/C=C/c1ccco1`, the “hERG current change (%, negative = inhibition) at 1uM” value is 9.77%. With `Cn1c(SCC(=O)N2CC(=O)Nc3ccccc32)nc2ccccc2c1=O` the figure was 8.32%.
